This note sets out measurements from the BET-seq Pho4 binding data (Le et al. 2018).

The list shows a part of the results. Values were computed here from the reads of four pooled replicates and scatter widely.

The target in this assay is T1, Pho4 (S. cerevisiae) (UniProt P07270).
T1 sequence: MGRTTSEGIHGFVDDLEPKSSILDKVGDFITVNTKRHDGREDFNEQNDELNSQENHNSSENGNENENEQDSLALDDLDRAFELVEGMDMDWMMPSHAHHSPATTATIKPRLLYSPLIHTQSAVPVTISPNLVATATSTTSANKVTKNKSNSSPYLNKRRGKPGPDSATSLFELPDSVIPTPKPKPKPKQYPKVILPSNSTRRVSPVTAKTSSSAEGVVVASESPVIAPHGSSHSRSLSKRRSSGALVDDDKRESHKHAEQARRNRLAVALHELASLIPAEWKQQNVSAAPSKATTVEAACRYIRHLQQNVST
Kind of assay: relative binding free energy (BET-seq); higher = weaker binding. Particulars: reference: library average.
As to TGTGGCACGTGGCGCG, the “relative binding free energy” value was -0.25 kcal/mol.
The result for TGGGACACGTGCGTGA reads -0.08 kcal/mol.
In the case of TTGTGCACGTGTACTG it was 0.04 kcal/mol; in that of CGTGTCACGTGGAAGG, 0.1 kcal/mol.
In the case of TTGGCCACGTGCAGGG it was -0.04 kcal/mol; in that of AGGTTCACGTGTTCTA, 0.14 kcal/mol.
As to ACTGTCACGTGGAGTG, the “relative binding free energy” value is 0.05 kcal/mol.
In the case of TGTATCACGTGGTGCC it was 0.12 kcal/mol.
The result for TCGCGCACGTGGGTGG reads -0.35 kcal/mol; that for GATAACACGTGTAGTG, -0.07 kcal/mol.
As to TTGTCCACGTGTTTCA, the “relative binding free energy” value was 0.15 kcal/mol.
In the case of CGGATCACGTGTTTGA it was 0.05 kcal/mol; in that of GCTTGCACGTGGAATT, 0.23 kcal/mol; in that of TGAATCACGTGGTTGA, 0.12 kcal/mol.
As to GGTGGCACGTGTACAG, the “relative binding free energy” value stood at 0.07 kcal/mol.
In the case of CCTGTCACGTGGTTTT it was 0.05 kcal/mol; in that of GCTGTCACGTGTAGGT, 0.31 kcal/mol.
The result for TTATGCACGTGTAGGA reads 0.01 kcal/mol; that for TAATACACGTGGTGAT, -0.04 kcal/mol.
The result for TTAATCACGTGACGAG reads 0.51 kcal/mol; that for AGAGGCACGTGCTGGG, -0.12 kcal/mol; that for TTCAGCACGTGTTTGT, 0.01 kcal/mol.
With ATATACACGTGATTAA, the “relative binding free energy” value was 0.35 kcal/mol.
The result for TAGGGCACGTGCTATT reads -0.2 kcal/mol.
Take ATGGGCACGTGACGTT: the “relative binding free energy” value amounted to 0.05 kcal/mol.
Consider ATGTGCACGTGTCGTA, for which the “relative binding free energy” value is 0.02 kcal/mol.
Consider ATTGCCACGTGAAGTT, for which the “relative binding free energy” value stood at 0.07 kcal/mol.
With TGTGGCACGTGGAGCA, the “relative binding free energy” value was -0.27 kcal/mol.
Regarding CTGTTCACGTGTTTGA, the “relative binding free energy” value is 0.39 kcal/mol.
In the case of TGATTCACGTGGCATG it was 0.14 kcal/mol.
In the case of CTTGGCACGTGATGGC it was -0.01 kcal/mol; in that of TGTTGCACGTGACGTA, 0.18 kcal/mol.
The result for ATTCGCACGTGTTTCG reads 0.06 kcal/mol.
Take CTTATCACGTGTAGCG: the “relative binding free energy” value worked out at 0.19 kcal/mol.
In the case of TGAAGCACGTGGAGCT it was 0 kcal/mol; in that of GCGGTCACGTGTGGTG, 0.19 kcal/mol.
As for AGTTACACGTGGGGGT, the “relative binding free energy” value is -0.03 kcal/mol.
The result for CAGGGCACGTGTGAGT reads -0.08 kcal/mol; that for GGGTACACGTGATGTA, 0.03 kcal/mol.
The result for GAATGCACGTGTGTGC reads -0.01 kcal/mol; that for TTTAGCACGTGTAATT, 0.04 kcal/mol; that for ATCAGCACGTGGCGTT, -0.06 kcal/mol.
In the case of GCTGTCACGTGGTGGA it was 0.2 kcal/mol; in that of ATATTCACGTGTAAGT, 0.37 kcal/mol; in that of TAAGGCACGTGTCGGT, 0.01 kcal/mol.
Consider GGTGCCACGTGAGGCG, for which the “relative binding free energy” value stood at 0.18 kcal/mol.
For TAAGTCACGTGCTTTG, the “relative binding free energy” value stood at 0.04 kcal/mol.
For GTAGCCACGTGTATGT, the “relative binding free energy” value is -0.07 kcal/mol.
As to CGGTACACGTGTCAGT, the “relative binding free energy” value is 0.18 kcal/mol.
The result for GATTACACGTGTGTGG reads 0.17 kcal/mol; that for GTTAGCACGTGAAGCG, 0.23 kcal/mol.
The result for TAAGGCACGTGTTTTT reads 0.01 kcal/mol.
The result for ATAGGCACGTGTTTGT reads -0.13 kcal/mol; that for TTGATCACGTGTGGAG, 0.33 kcal/mol; that for GTGGGCACGTGCCAAG, -0.02 kcal/mol.
On to AGGGTCACGTGCGAAT, for which the “relative binding free energy” value was 0.27 kcal/mol.
The result for GTATGCACGTGGGGAA reads 0 kcal/mol.
With GGGGCCACGTGTAAGG, the “relative binding free energy” value came out at 0.06 kcal/mol.
The result for TTCTACACGTGATGTT reads 0.18 kcal/mol; that for GAATACACGTGTATGT, 0.04 kcal/mol.
As to TCGTCCACGTGTAAGG, the “relative binding free energy” value worked out at 0.34 kcal/mol.
Turning to TATATCACGTGAATGG, the “relative binding free energy” value came out at 0.44 kcal/mol.
The result for TGTTACACGTGTCTAG reads 0.1 kcal/mol.
In the case of TGTCGCACGTGGCTTG it was -0.19 kcal/mol.
GTTTGCACGTGTGGCC: the “relative binding free energy” value turned out to be 0.12 kcal/mol.
As for ACTGTCACGTGGCTGG, the “relative binding free energy” value is -0.04 kcal/mol.
Consider GGTGTCACGTGGCGTT, for which the “relative binding free energy” value is 0.09 kcal/mol.
The result for GTGGGCACGTGATTGC reads 0.04 kcal/mol; that for ATAGTCACGTGGGAAG, 0.03 kcal/mol; that for GAAAGCACGTGGATTG, 0.08 kcal/mol.
Take TAATTCACGTGGAGTA: the “relative binding free energy” value worked out at 0.34 kcal/mol.
In the case of GGGGTCACGTGAGCAA it was 0.36 kcal/mol; in that of TGTGGCACGTGCATTA, -0.1 kcal/mol; in that of CGTGTCACGTGGATTC, 0.18 kcal/mol.
The result for TTGCGCACGTGGCGGG reads -0.26 kcal/mol; that for CTGGTCACGTGCGGTT, 0.17 kcal/mol.
In the case of TATGGCACGTGTTTAG it was 0.03 kcal/mol; in that of TGGTTCACGTGGATGG, 0.39 kcal/mol; in that of AGTGGCACGTGGGACA, -0.25 kcal/mol.
Consider AGGGCCACGTGTGTCG, for which the “relative binding free energy” value is 0.04 kcal/mol.
The result for GCGTACACGTGGTGGT reads 0.1 kcal/mol.
In the case of AGGGTCACGTGAGTCA it was 0.24 kcal/mol.
The result for TGTTCCACGTGACGTG reads 0.15 kcal/mol.
Take GGGGTCACGTGTGATA: the “relative binding free energy” value was 0.23 kcal/mol.
The result for TGGAGCACGTGAGAAT reads 0.3 kcal/mol.
In the case of TGGATCACGTGCTTGG, the “relative binding free energy” value worked out at 0.19 kcal/mol.
In the case of GTTCACACGTGATGTT it was 0.29 kcal/mol; in that of TTAAACACGTGGGGCA, -0.16 kcal/mol; in that of AAGGTCACGTGGTTCT, -0.02 kcal/mol.
On to CTGTTCACGTGTTTCT, for which the “relative binding free energy” value was 0.24 kcal/mol.
For TTCAGCACGTGAGATG, the “relative binding free energy” value was 0.26 kcal/mol.
The result for AGCGTCACGTGTTTAT reads -0.02 kcal/mol.
Turning to CTGTTCACGTGGGATA, the “relative binding free energy” value came to 0.21 kcal/mol.
In the case of TTATCCACGTGGTAGT, the “relative binding free energy” value was -0.19 kcal/mol.
In the case of CTTACCACGTGTTGTG it was -0.02 kcal/mol; in that of TGAAACACGTGTAGAG, 0.08 kcal/mol.
In the case of TATTACACGTGGTAGG it was 0 kcal/mol; in that of TGTTTCACGTGGACAG, 0.28 kcal/mol; in that of AAGGGCACGTGGGTGA, -0.21 kcal/mol.
The result for ATGCTCACGTGGGATA reads 0.12 kcal/mol.
Consider AAGTGCACGTGGTAGG, for which the “relative binding free energy” value is -0.08 kcal/mol.
AAGATCACGTGTGCGT: the “relative binding free energy” value came to 0.08 kcal/mol.
The result for CGAGGCACGTGTGCGG reads -0.08 kcal/mol.
As for GGAGTCACGTGCGGTG, the “relative binding free energy” value was 0.14 kcal/mol.
Regarding CAAATCACGTGTGTGT, the “relative binding free energy” value was found to be 0.13 kcal/mol.
The result for TCTGTCACGTGGTTTA reads -0.07 kcal/mol.
Turning to ACTTTCACGTGGAGTT, the “relative binding free energy” value worked out at 0.38 kcal/mol.
GGGTGCACGTGGCAGG: the “relative binding free energy” value is -0.03 kcal/mol.
As for TTAATCACGTGTATGT, the “relative binding free energy” value came to 0.02 kcal/mol.
In the case of GGGCTCACGTGAAGCG, the “relative binding free energy” value is 0.45 kcal/mol.
The result for AGGTCCACGTGGAGGA reads 0 kcal/mol.
The result for GCTGGCACGTGTCGGT reads -0.09 kcal/mol; that for TTGTGCACGTGAAGGA, 0.18 kcal/mol; that for AAAGTCACGTGGTGAG, -0.02 kcal/mol.
In the case of TGTTGCACGTGATCTT it was -0.1 kcal/mol; in that of ATGGTCACGTGATGAT, 0.23 kcal/mol; in that of CGGATCACGTGGGTTC, 0.03 kcal/mol.
GGAGGCACGTGATGGT: the “relative binding free energy” value was 0.15 kcal/mol.
Take GTAGGCACGTGTTTTT: the “relative binding free energy” value was determined as 0 kcal/mol.
In the case of GTTTTCACGTGGCTCG it was 0.33 kcal/mol; in that of GTTTTCACGTGCAGCT, 0.33 kcal/mol.
On to TGTAACACGTGGTAGA, for which the “relative binding free energy” value was -0.06 kcal/mol.
The result for GGAATCACGTGTTCGT reads 0.21 kcal/mol.
For the sequence AGGATCACGTGGGTTC, the “relative binding free energy” value came to 0.09 kcal/mol.
In the case of GTGACCACGTGTCGGT it was 0.02 kcal/mol; in that of GTGTGCACGTGAGCAG, 0.12 kcal/mol; in that of GTTTCCACGTGGGATT, 0.05 kcal/mol.
The result for GTTCGCACGTGTTTTT reads 0.12 kcal/mol; that for GCGCTCACGTGTGGGT, 0.05 kcal/mol; that for TTACACACGTGGGTGT, -0.11 kcal/mol.
Turning to TTGTTCACGTGTGTCA, the “relative binding free energy” value came to 0.21 kcal/mol.
As to TTCTTCACGTGTGTAT, the “relative binding free energy” value is 0.38 kcal/mol.
The result for GGTATCACGTGCGGAA reads 0.21 kcal/mol; that for AGAGTCACGTGACAGT, 0.21 kcal/mol.
In the case of ATCGTCACGTGGTAGG it was -0.02 kcal/mol.
As for GTGGGCACGTGGAGGG, the “relative binding free energy” value was -0.07 kcal/mol.
The result for GGGGTCACGTGTTCTT reads 0.19 kcal/mol; that for AGCAACACGTGAGGGG, 0.2 kcal/mol.
In the case of GCGGTCACGTGGTGGC, the “relative binding free energy” value was determined as 0.09 kcal/mol.
As for ATTAGCACGTGCAGTT, the “relative binding free energy” value was 0.04 kcal/mol.
In the case of GGAGGCACGTGTTGGG it was -0.08 kcal/mol; in that of CGTTCCACGTGTAGTT, 0.21 kcal/mol.
Turning to TCAGGCACGTGAGGAA, the “relative binding free energy” value was 0.25 kcal/mol.
On to GTGTGCACGTGTGGCG, for which the “relative binding free energy” value stood at 0.05 kcal/mol.
The result for TATTTCACGTGGGGGT reads 0.18 kcal/mol.
In the case of ATTAGCACGTGGGCGG it was -0.13 kcal/mol.
